Among all 150,000 compounds or so, about 540 (0.36%) showed an effect of 50% or more. The list shows a part of the results.
What follows are compounds tested on Plasmodium falciparum (assay: Primary screen in NF54 nanoGlo assay, in single point, at 2uM, 72h; a lower Z score goes with more inhibition). Conditions: timepoint 72 hour.
Type: functional, Erythrocyte
In the case of CC1CN(c2ccc(C(F)(F)F)cc2)CC(C)N1Cc1nc[nH]n1 (centres undefined), the “% Inhibition” value is reported as -32% and the Z score is reported as 3.75.
In the case of CC(C)[C@@H](NC(=O)c1cc(=O)c2cccc(F)c2[nH]1)C(N)=O, the “% Inhibition” value is reported as -9% and the Z score is reported as 1.55.
CC(=O)c1c([O-])n(-c2ccccc2)n[n+]1Cc1ccccc1 was tested, and the “% Inhibition” value was 4% and the Z score was -0.56.
Cc1ccc(CN(C)CCc2ccccn2)o1 was tested, and the “% Inhibition” value was 11% and the Z score was -1.67.
CC(C)N(CC(=O)N(CCc1c[nH]c2ccccc12)Cc1ccc(N(C)C)cc1)C(=O)c1cc(C(F)(F)F)cc(C(F)(F)F)c1 was tested, and the “% Inhibition” value was 7% and the Z score was -1.29.
With O=C1[C@H]2[C@H](Cc3c[nH]c4ccc(O)cc34)N[C@@]3(C(=O)Nc4ccccc43)[C@H]2C(=O)N1c1ccccc1 the “% Inhibition” value was 1% and the Z score was -0.15.
In the case of Cc1nscc1C(=O)OCC(=O)N1CCCC1, the “% Inhibition” value is reported as 12% and the Z score is reported as -1.42.
In the case of Cc1oc2ccccc2c1CNC(=O)N1CCC(C)(C)C1, the “% Inhibition” value is reported as -1% and the Z score is reported as 0.2.
For O=C(c1ccc(-c2ccccc2F)s1)N1CCO[C@H](c2ccccc2)C1, the “% Inhibition” value was -1% and the Z score was 0.12.
With Cn1c(NC(=O)c2ccc(Br)cn2)nnc1C1CC1 the “% Inhibition” value was -4% and the Z score was 0.41.
For Cc1ccccc1N1C(=O)C2C(c3ccccc3)CCC(c3ccccc3)C2C1=O (centres undefined), the “% Inhibition” value was -20% and the Z score was 2.18.
CC(O)(CC(=O)N1CC2CCC(O)CC2C1)C1CC1 (centres undefined) was tested, and the “% Inhibition” value was -36% and the Z score was 4.23.
For COc1ccc(N2CCN(Cc3cccn3-c3nnc(N4CCCCC4)s3)CC2)cc1, the “% Inhibition” value was -5% and the Z score was 0.49.
With CO[C@@H](C(=O)N(C)Cc1cn(C)nc1C(C)C)c1ccccc1 the “% Inhibition” value was -9% and the Z score was 1.23.
For Cc1cc(C)cc(OCC(=O)N[C@H](c2ccccc2)C2CC2)c1, the “% Inhibition” value was -14% and the Z score was 1.61.
COc1ccc(CC(=O)Nc2ccc3nnn(CC(C)C)c(=O)c3c2)cc1 was tested, and the “% Inhibition” value was 12% and the Z score was -1.52.
In the case of C[C@@H](Cc1csc2ccccc12)NC(=O)Cc1c(F)cccc1Cl, the “% Inhibition” value is reported as 6% and the Z score is reported as -0.73.
In the case of CC1CCN(C(=O)c2oc3ccccc3c2NC(=O)Cc2ccccc2)CC1, the “% Inhibition” value is reported as 3% and the Z score is reported as -0.32.
In the case of CCn1cncc1Cn1ccc(-c2cccc(-c3ccncc3)c2)n1, the “% Inhibition” value is reported as -9% and the Z score is reported as 1.1.
In the case of Cc1nsc2ncc(C(=O)N3CCOCC3)c(N3CCC(C(=O)Nc4ccc(F)cc4Cl)CC3)c12, the “% Inhibition” value is reported as 1% and the Z score is reported as -0.13.
With c1ccc(-c2nc(-c3ccccc3)c3c(n2)-c2ccccc2C3)cc1 the “% Inhibition” value was 2% and the Z score was -0.28.
For CC(C)(C)CC(=O)NC[C@H]1OC[C@@H](N(Cc2cccs2)Cc2cccs2)[C@@H]1O, the “% Inhibition” value was 15% and the Z score was -1.76.
O=C(NCC1CCOC1)[C@H]1C[C@@H]1c1cccnc1 (some centres undefined) was tested, and the “% Inhibition” value was -13% and the Z score was 1.53.
In the case of Cc1c(NC(=O)Nc2ccc(Cl)c(Cl)c2)sc(=S)n1C, the “% Inhibition” value is reported as -2% and the Z score is reported as 0.43.
CCNC(=O)C[C@H]1CCCCN1C(=O)C1CCN(c2nc(C)cs2)CC1 was tested, and the “% Inhibition” value was -7% and the Z score was 1.25.
CCCNC(=O)c1[nH]cnc1C(=O)N[C@H]1CCCCNC1=O was tested, and the “% Inhibition” value was 3% and the Z score was -0.38.
CCCn1nc(C(=O)N(C)C)c2c1CC[C@H](O)C2 was tested, and the “% Inhibition” value was -18% and the Z score was 2.26.
With O=C(NCCc1ccccc1)c1ccc2nc(-c3ccc(F)cc3)c(-c3ccc(F)cc3)nc2c1 the “% Inhibition” value was 1% and the Z score was -0.09.
With CC#CCn1nnnc1Cc1ccc(OC)c(F)c1 the “% Inhibition” value was 6% and the Z score was -0.7.
In the case of O=C(C1CCN(S(=O)(=O)c2ccc(Cl)cc2)CC1)N1CCCCCCC1, the “% Inhibition” value is reported as -12% and the Z score is reported as 2.44.
With CNC(=O)N(C)CCc1noc(COc2cccc(C)c2)n1 the “% Inhibition” value was -14% and the Z score was 1.42.
For Cc1ccc2nc(N(C)Cc3nc(-c4ccccn4)no3)sc2c1, the “% Inhibition” value was 4% and the Z score was -0.57.
For Cc1cc2n(n1)CCCN(Cc1cc3n(n1)CCN(c1cc(N)ncn1)C3)C2, the “% Inhibition” value was -9% and the Z score was 1.38.
In the case of CC(=Cc1ccccc1)CN(C)C(=O)C1CCS(=O)(=O)CC1, the “% Inhibition” value is reported as -1% and the Z score is reported as 0.27.
C[C@]1(NC(=O)CCc2c[nH]c3ccccc23)CCS(=O)(=O)C1 was tested, and the “% Inhibition” value was 7% and the Z score was -1.3.
COc1ccc(COC(=O)c2cccnc2C)cn1 was tested, and the “% Inhibition” value was 42% and the Z score was -4.77.
With Cc1cc(OC2CCN(C(=O)Cn3cc(-c4ccc(F)cc4)cn3)CC2)cc(=O)n1C the “% Inhibition” value was -2% and the Z score was 0.34.
In the case of Cc1cc(C(=O)NCCN2CCC[C@H](C(N)=O)C2)c(-c2ccccc2)o1, the “% Inhibition” value is reported as -5% and the Z score is reported as 0.7.
In the case of Cc1cc(Cn2nnc(C(=O)N[C@](C)(C(N)=O)C(C)C)c2C)on1, the “% Inhibition” value is reported as -1% and the Z score is reported as 0.17.
CCCN(C(=O)c1cc(C)c(OC(F)F)c(C)c1)[C@H]1CCNC1 was tested, and the “% Inhibition” value was -14% and the Z score was 1.44.
COc1ccc(C(NC(=O)CCN2CCOCC2)[C@H]2C[C@@H](O)C2)cc1F (some centres undefined) was tested, and the “% Inhibition” value was 3% and the Z score was -0.25.
O=C(NCCN1CCN(c2ccccc2F)CC1)[C@H]1CCCN(c2nc3ccc(Cl)cc3[nH]2)C1 was tested, and the “% Inhibition” value was 1% and the Z score was -0.25.
Cc1cc(NC(=O)c2ccc3ccccc3c2)n(-c2nc3c(c(=O)[nH]2)CCC3)n1 was tested, and the “% Inhibition” value was 2% and the Z score was -0.26.
In the case of CCC(NC(=O)Cc1c(C)nn(C)c1C)C(O)c1ccccc1F (centres undefined), the “% Inhibition” value is reported as -7% and the Z score is reported as 0.66.
CCCc1cc(CN(C)C(=O)c2c(C)cc(C)[nH]c2=O)n[nH]1 was tested, and the “% Inhibition” value was -1% and the Z score was 0.21.
With Cc1cc(C2CCC2)nc(N2CCn3nc([C@@H](O)C4CC4)cc3C2)n1 the “% Inhibition” value was -13% and the Z score was 1.49.
COc1ccc(NC(=O)n2nc(C(F)(F)F)nc2N)cc1 was tested, and the “% Inhibition” value was -14% and the Z score was 1.84.
Fc1cccc(-c2ccnc(N[C@H]3CO[C@H]4[C@@H]3OC[C@H]4OCc3ccccc3)n2)c1 was tested, and the “% Inhibition” value was -12% and the Z score was 1.52.
In the case of CC1CCN(Cc2nnnn2CCCC(=O)NCc2scnc2-c2ccccc2)CC1, the “% Inhibition” value is reported as -3% and the Z score is reported as 0.6.
O=C(O)c1ccc(CN2CCC(Oc3ccc(F)cc3F)CC2)cc1 was tested, and the “% Inhibition” value was -17% and the Z score was 2.07.
For O=C([C@@H]1COCCO1)N1CCCc2c(F)ccc(F)c21, the “% Inhibition” value was 2% and the Z score was -0.38.
In the case of O=C(CCc1ccc(-n2cnnc2)cc1)NC[C@@H]1CCCN2CCCC[C@H]12, the “% Inhibition” value is reported as -8% and the Z score is reported as 1.13.
In the case of Cn1c(=O)n(CC(=O)NCc2ccccc2F)c2cncnc21, the “% Inhibition” value is reported as -18% and the Z score is reported as 1.85.
CCN1C(=O)CCN(C(=O)c2ccnn2C)CC12CCOCC2 was tested, and the “% Inhibition” value was 33% and the Z score was -0.31.
With CC(C)[C@H](NC(=O)c1ccccc1F)C(=O)Nc1ccc(F)c(N2CCCNC2=O)c1 the “% Inhibition” value was -7% and the Z score was 1.04.
O=C(Cn1cccnc1=O)NC[C@@H](CO)Cc1ccco1 was tested, and the “% Inhibition” value was -8% and the Z score was 1.54.
With C[C@]1(c2ccc(Br)cc2)NC(=O)N(CN2CCC(C(=O)N3CCCCCC3)CC2)C1=O the “% Inhibition” value was -2% and the Z score was 0.21.
With CN(C)c1cc(C(=O)N[C@H]2CCc3nccn3C2)ccn1 the “% Inhibition” value was -14% and the Z score was 3.02.
For CCn1c(=O)sc2cc(NC(=O)Cc3cccs3)ccc21, the “% Inhibition” value was 4% and the Z score was -0.45.
In the case of Cc1ccccc1OCC(=O)NC[C@H]1CCCN(C(=O)c2cccc(O)n2)C1, the “% Inhibition” value is reported as -8% and the Z score is reported as 1.47.
For COc1ccc(C2CN(C(=O)C3CCCC3)CC2C(=O)N2CCCC2)c(OC)c1 (centres undefined), the “% Inhibition” value was -6% and the Z score was 0.53.
In the case of O=C(NCc1nnc2ccccn12)NC1CC1c1cccc(F)c1 (centres undefined), the “% Inhibition” value is reported as -6% and the Z score is reported as 0.65.
For Cc1cc(C(=O)N[C@@H]2COCC[C@@H]2OCc2ccccc2)c(C)n1C, the “% Inhibition” value was -7% and the Z score was 1.44.
For CC(C)[C@H](NS(=O)(=O)N1CCOCC1)c1nccn1C, the “% Inhibition” value was -10% and the Z score was 1.72.
CN(Cc1ccccc1)C(=O)C1C(c2ccc(NC(=O)c3ccc(F)cc3)cc2)OC(=O)N1Cc1ccccc1 (centres undefined) was tested, and the “% Inhibition” value was 6% and the Z score was -0.74.
In the case of COCc1cc(C(=O)N[C@H](c2ccccc2)C2CCOCC2)no1, the “% Inhibition” value is reported as 38% and the Z score is reported as -5.54.
O=C(c1ccc2c(c1)OCO2)[C@H]1CCCN(C(=O)CCOc2ccccc2)C1 was tested, and the “% Inhibition” value was 3% and the Z score was -0.58.
O=C(NCc1ccc2c(c1)OCO2)N1CCN(c2nccs2)C(=O)C1 was tested, and the “% Inhibition” value was 14% and the Z score was -1.81.
With C[C@H](NC(=O)N(C)Cc1nccs1)c1nnc(N)s1 the “% Inhibition” value was -5% and the Z score was 1.
COCCCN(CC(=O)N(Cc1ccccc1)Cc1cccn1Cc1cccc(OC)c1)C(=O)c1ccc(Cl)cc1 was tested, and the “% Inhibition” value was -11% and the Z score was 1.26.
COc1cccc2c1OC[C@@H](C(=O)N(Cc1nccs1)C1CC1)C2 was tested, and the “% Inhibition” value was -11% and the Z score was 1.48.
With Cn1ccc([C@H]2CCCN(C(=O)Cc3c(F)cccc3Cl)C2)n1 the “% Inhibition” value was -13% and the Z score was 1.48.
With CN(Cc1ccccc1)[C@H]1CCOC2(CCN(C(=O)c3ccoc3)CC2)C1 the “% Inhibition” value was -15% and the Z score was 1.93.
In the case of Cc1cc(C)nc(NC(=O)N(C)CCCn2ccnc2)c1, the “% Inhibition” value is reported as -3% and the Z score is reported as 0.39.
With O=C(NCC(=O)N1CCc2ccccc2C1)c1ccco1 the “% Inhibition” value was -18% and the Z score was 3.42.
With CCc1cc(C#N)c(NC(=O)CCOC2CCOCC2)s1 the “% Inhibition” value was -17% and the Z score was 3.4.
With CCCc1occc1C(=O)N1CCO[C@@H](CF)C1 the “% Inhibition” value was -1% and the Z score was 0.19.
With COCCn1ccc(NC(=O)NCc2sc(C)nc2C)n1 the “% Inhibition” value was -3% and the Z score was 0.67.
In the case of CC(C)Oc1ccc(C(=O)N2[C@@H](C)CCC2(C)C)nc1, the “% Inhibition” value is reported as -13% and the Z score is reported as 1.93.
For Cc1cnc(NC(=O)[C@H]2CCCN(c3ccc4nnnn4n3)C2)s1, the “% Inhibition” value was 4% and the Z score was -0.46.
For Cc1ccc(N2C[C@H](Cc3ccccc3)N(C(=O)c3ccc[nH]3)CC2=O)cc1, the “% Inhibition” value was -4% and the Z score was 0.84.
O=C(c1cc(Cl)cc2c1OCC2)N1CCC(OC2CCC2)CC1 was tested, and the “% Inhibition” value was -5% and the Z score was 0.66.

Source: ChEMBL document CHEMBL4888484, “Replenishing the malaria drug discovery pipeline: Screening and hit evaluation of the MMV Hit Generation Library 1 (HGL1) against asexual blood stage Plasmodium falciparum ,using a nano luciferase reporter read-out” (2022)
